Source: the supplement of paper PMC12578646, “Prodrug florfenicol amine is activated by intrinsic resistance to target Mycobacterium abscessus” (Nature Microbiology, 2025)
“And” between values parts separate entries of the source, which are not always exact repeats. Identical values can stand only once. M. abscessus ATCC 19977 and its deletion, point and complemented mutants after 5 days of drug at 37 °C plus 24 h of resazurin. Growth in % of untreated wells at the dose given (lower = more inhibition); checkerboards give % inhibition (higher = more inhibition); IC50 from the fitted curve (lower = more potent). No active / inactive call. IC50 values come from the same 384-well curves. Growth is not capped and can exceed 100%. The direction of the checkerboard scale is read from the raw signals. Capreomycin is a mixture.

Tests used:
[1] = test system: Mycobacterium abscessus ATCC 19977; assay: growth inhibition; higher = more inhibition
Procedure: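 384-well checkerboard, three replicates; 5 days at 37 °C, then 24 h with resazurin; fluorescence scaled to growth and killed controls.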

[2] = test system: Mycobacterium abscessus ATCC 19977 Δcat; assay: growth relative to untreated wells; higher = more growth
Procedure: (§1)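 Two-fold dose series, three replicates; 5 days at 37 °C, then 24 h with resazurin; fluorescence scaled to growth and killed controls.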

[3] = test system: Mycobacterium abscessus ATCC 19977 ΔwhiB7; assay: as above
Procedure: as §1

[4] = test system: Mycobacterium abscessus ATCC 19977; assay: as above
Procedure: as §1

[5] = test system: Mycobacterium abscessus ATCC 19977 Eis2 T258R; assay: growth relative to untreated wells; higher = more growth (less inhibition)
Procedure: (§2)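 384-well two-fold dose series, two replicates; 5 days at 37 °C, then 24 h with resazurin; fluorescence scaled to growth and killed controls.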

[6] = test system: Mycobacterium abscessus ATCC 19977 WhiB7 R76del; assay: as above
Procedure: as §2

[7] = test system: Mycobacterium abscessus ATCC 19977 ΔwhiB7; assay: as above
Procedure: as §2

[8] = test system: Mycobacterium abscessus ATCC 19977; assay: as above
Procedure: as §2

CS(=O)(=O)c1ccc([C@@H](O)[C@H](N)CF)cc1 [florfenicol amine]
Settings	growth inhibition, [1]	growth, [2] [%]	growth, [3] [%]	growth, [4] [%]	growth, [5] [%]	growth, [6] [%]	growth, [7] [%]	growth, [8] [%]
0.241504 µg/mL	4.7% and -5.63%	–	–	–	–	–	–	–
0.25 µg/mL	–	–	–	–	104	103	101	101
0.483008 µg/mL	1.14% and -2.07%	–	–	–	–	–	–	–
0.5 µg/mL	–	–	–	–	109	108	104	107.6
0.966016 µg/mL	-4.66% and -4.44%	–	–	–	–	–	–	–
1 µg/mL	–	96.1	102.4	104	103	103.7	101	112
1.93203 µg/mL	-8.49% and -11.6%	–	–	–	–	–	–	–
2 µg/mL	–	79.1	98.3	88.7	105.6	105	107	116
3.86406 µg/mL	-10.9% and -12.5%	–	–	–	–	–	–	–
4 µg/mL	–	66.1	100	80.3	99.3	108	103	121.6
7.72813 µg/mL	-8.86% and -10.3%	–	–	–	–	–	–	–
8 µg/mL	–	48.3	102	72.7	105	99.3	97.4	94.7
15.4563 µg/mL	56.6% and 55.3%	–	–	–	–	–	–	–
16 µg/mL	–	34.9	103	61.9	104	101	93.25	35.9
30.9125 µg/mL	87.7% and 89.1%	–	–	–	–	–	–	–
32 µg/mL	–	14.3	108	36.6	116.6	110	110	11.1
61.825 µg/mL	94.9% and 94.3%	–	–	–	–	–	–	–
64 µg/mL	–	-1.9	88.4	4.88	66.2	123.7	142.8	5.76
123.65 µg/mL	99.7% and 101%	–	–	–	–	–	–	–
128 µg/mL	–	-5.41	58.8	-3.89	19.6	14.9	29.4	1.22
256 µg/mL	–	-4.73	-0.448	-2.96	12.9	-1.75	-2.8	-1.27
512 µg/mL	–	-2.02	3.71	2.55	0.806	-1.15	-2.41	-0.88

CS(=O)(=O)c1ccc([C@@H](O)[C@@H](CO)NC(=O)C(Cl)Cl)cc1 [thiamphenicol]
growth [%]
Settings	[2]	[3]	[4]	[5]	[6]	[7]	[8]
0.5 µg/mL	–	–	–	97.3	104	108	97
1 µg/mL	91.1	97.6	111	105	108	105.4	107
2 µg/mL	85.8	99	99.4	101	103	98.3	106
4 µg/mL	87.1	92.5	98.3	109	110	108	106.8
8 µg/mL	91.6	96.9	99.7	95.9	107	110	99.1
16 µg/mL	82.2	97.4	94.1	101	117.3	122	106.9
32 µg/mL	76	95	102	103	20.4	74.9	96.9
64 µg/mL	60.5	78.9	102	105	2.99	15	108
128 µg/mL	30.7	11.6	103	110	-0.697	1.16	115
256 µg/mL	3.58	1.57	104	87.8	-1.7	-1.52	71.2
512 µg/mL	3.23	1.8	103	56.1	-1.52	-3.09	46.62
1024 µg/mL	–	–	–	5.99	-1.02	-3.09	5.53
